This is an account of results in PubChem BioAssay AID488969 (Vanderbilt High Throughput Screening Facility, 2010).

In all, about 110,000 compounds were measured (“z-score”: median about -0.1, highest 2% from about 2 on). The list shows a part of the results. Active and inactive are the calls of the source.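 Rule for the calls: active = z-score in the third read window above 3 or below -3; inactive = the rest.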

This experiment has as its target Metabotropic glutamate receptor 8 (Rattus norvegicus) (UniProt P70579). As to the kind of experiment: mGluR8 Gi/Go-coupled signaling modulation – cell-based, rat, thallium flux, HTS, primary screen (AID 488969). The following applies: HEK293 rat mGluR8, GIRK (G protein-gated inwardly rectifying potassium channel) thallium flux, FluoZin2; at 10 µM; stronger effect = higher value; submaximal glutamate (EC20) added with thallium.
Sequence of UniProt P70579 (P70579 whole entry, looked up): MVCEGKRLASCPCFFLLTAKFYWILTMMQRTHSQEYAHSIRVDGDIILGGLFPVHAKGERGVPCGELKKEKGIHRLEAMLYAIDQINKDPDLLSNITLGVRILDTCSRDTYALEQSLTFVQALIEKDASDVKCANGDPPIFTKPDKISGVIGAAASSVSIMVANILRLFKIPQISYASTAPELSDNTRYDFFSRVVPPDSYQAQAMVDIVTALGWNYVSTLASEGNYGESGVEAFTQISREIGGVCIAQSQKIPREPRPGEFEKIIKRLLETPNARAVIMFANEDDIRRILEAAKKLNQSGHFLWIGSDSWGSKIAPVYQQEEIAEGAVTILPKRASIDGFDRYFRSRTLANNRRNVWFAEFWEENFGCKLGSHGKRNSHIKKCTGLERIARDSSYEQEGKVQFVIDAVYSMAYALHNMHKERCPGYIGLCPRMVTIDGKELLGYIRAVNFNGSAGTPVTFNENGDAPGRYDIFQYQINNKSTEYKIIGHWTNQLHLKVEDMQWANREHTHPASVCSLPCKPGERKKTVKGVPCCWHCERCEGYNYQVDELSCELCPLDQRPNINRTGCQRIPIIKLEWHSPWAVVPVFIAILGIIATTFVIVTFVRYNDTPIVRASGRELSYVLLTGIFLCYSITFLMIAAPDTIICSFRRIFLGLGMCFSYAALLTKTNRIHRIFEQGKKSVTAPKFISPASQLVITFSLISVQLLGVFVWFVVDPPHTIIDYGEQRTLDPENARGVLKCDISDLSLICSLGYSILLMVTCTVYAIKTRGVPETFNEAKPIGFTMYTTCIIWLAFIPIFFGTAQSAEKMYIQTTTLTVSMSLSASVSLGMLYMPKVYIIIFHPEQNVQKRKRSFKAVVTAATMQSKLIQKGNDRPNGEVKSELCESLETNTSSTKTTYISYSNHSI
With `Cc1oc(-c2ccccc2)cc1C(N)=O`, the z-score is -0.0153.

`C=CCN(CC(=O)NCC1CCCO1)C(=O)CCC(=O)Nc1cc(C)on1` (centres undefined) registered a z-score of -0.189.

The molecule `C#CCSc1nc(-c2cccs2)ccc1C#N` gave a z-score of 0.366.

On to `C=CCNC(=O)C1CC(=O)N(c2ccc(OCC(=O)Nc3ccccc3)cc2)C1` (centres undefined), for which the z-score is active: 4.85.

`COc1cc2c(cc1OC)C(C)N(C(=S)Nc1ccccc1)CC2` (centres undefined) came in with a z-score of 0.0694.

Molecule `COc1cccc(-c2noc(C(C)n3nc(C)c([N+](=O)[O-])c3C)n2)c1` (centres undefined) returned a z-score of 0.0264.

In turn, `O=C(C/C=N/OCc1ccc(Cl)cc1)c1cnc(-c2ccccc2)s1` displayed a z-score of -0.108.

With `O=C(Nc1cccc2ccccc12)N1CCOCC1`, the z-score is -0.271.

`COc1ccccc1NC(=O)CSc1ccc2nnc(-c3ccncc3)n2n1`: the z-score is -0.138.

Consider `N#Cc1ccsc1NC(=O)CN1CCN(c2ccccc2O)CC1`, for which the z-score is 0.137.

`CCOc1ccc(OCCSc2nc3ccccc3c(=O)[nH]2)cc1`: the z-score is -0.398.

`COc1cc(C(=O)NC2CCN(Cc3nnnn3Cc3cccs3)CC2)cc(OC)c1OC` displayed a z-score of -0.335.

For the molecule `CCSc1nc(N)c(C#N)c(-c2ccco2)c1C#N`, the z-score is -0.377.

`CC(c1nnnn1C1CCCCC1)N(Cc1ccccc1)Cc1cccnc1` (centres undefined) had a z-score of 1.29.

As to `Cc1cccc(OCC(=O)N(Cc2cccs2)C2CCS(=O)(=O)C2)c1C` (centres undefined), the z-score was -0.196.

On to `N#Cc1c(-c2ccc(Cl)cc2)nc2n(c1=O)CCCS2`, for which the z-score worked out at 0.928.

Molecule `COc1cc(/C=N/NC(=O)c2ccoc2C)cc(OC)c1O` displayed a z-score of -0.108.

As to `Cc1cc(Cl)c(OCCCCN2CCOCC2)c(Br)c1`, the z-score was -0.477.

`O=C1C(=O)N(CCO)C(c2ccccc2)/C1=C(\O)c1ccccc1` (centres undefined) showed a z-score of -0.284.

Molecule `CCCN1C(=O)C(NS(=O)(=O)c2ccc(N)cc2)(C(F)(F)F)C(C(=O)OC)=C1C` (centres undefined) registered a z-score of 0.354.

In turn, `Cc1ccc(C(=O)N(Nc2nc3ccccc3s2)C(=O)c2ccc(C)cc2)cc1` registered a z-score of 0.0589.

With `CCn1c(SCC(=O)Nc2ccc3c(c2)OCCO3)nnc1-c1cccs1`, the z-score is -0.338.

Consider `FC(F)(F)c1cnc(-c2cnc3c(-c4ccc(Cl)cc4)cnn3c2)c(Cl)c1`, for which the z-score was -0.0049.

In the case of `O=C(COC(=O)C1(c2ccc(F)cc2)CCCC1)NC1CC1`, the z-score is -0.235.

In turn, `O=C(O)CCCC(=O)Nc1ccc(C(=O)N2CCCCC2)cc1` had a z-score of -0.0517.

`O=C(CNC(=O)c1cccs1)NCCN1CCN(Cc2ccccc2)CC1` came in with a z-score of 0.0379.

Molecule `CCC1(CC)NC(=O)N(CC(=O)Nc2sc3c(c2C(N)=O)CCC3)C1=O` displayed a z-score of -0.509.

`COc1ccccc1Oc1ccc2c(c1)C(=O)N(c1cccc3ncccc13)C2=O` returned a z-score of 0.848.

Molecule `COc1cccc(CNC(=O)c2ccc3nc[nH]c3c2)c1` displayed a z-score of 0.306.

`Cc1cc(N2C(=O)CC(Cc3ccccc3)C2=O)no1` (centres undefined): the z-score was -0.0586.

`Cc1ccc(C(=O)N/C(=C/c2ccco2)C(=O)Nc2cccc(C)c2)cc1` registered a z-score of -0.287.

`COc1ccc(NC(=O)CN2CCN(c3nc(-c4cccc(OC)c4)cs3)CC2)cc1`: the z-score was 1.16.

In turn, `Cc1ccc(NC(=O)CCSc2nc(C)cc(C)n2)cc1` displayed a z-score of 0.237.

Take `COc1ccccc1OC(=O)CN1C(=O)c2ccccc2C1=O`: the z-score is -0.417.

`COc1cccc2c(=O)ccoc12`: the z-score is -0.122.

The molecule `O=C(Oc1cccc(Oc2ccccc2)c1)N1CCOCC1` displayed a z-score of -0.663.

As for `O=C1CC(NCCC2=CCCCC2)C(=O)N1c1cccc(Cl)c1Cl` (centres undefined), the z-score was -0.0619.

Take `Cc1nnc(Nc2ccccc2)n(N)c1=O`: the z-score was 0.0927.

`CSc1nc(NC(C)(C)C)nc(N2CCOCC2)n1` displayed a z-score of -1.58.

In the case of `COc1ccc(-c2nc(O)c3cnccn23)cc1`, the z-score was -0.252.

Consider `O=C(O)CSCC(=O)Nc1ccc(C2CCCCC2)cc1`, for which the z-score is -0.331.

On to `N/C(COc1cccc(Cl)c1)=N\NS(=O)(=O)c1ccccc1`, for which the z-score worked out at 0.0468.

Regarding `O=C(c1ccc2c(c1)OCCCO2)c1cccs1`, the z-score worked out at 0.575.

In turn, `COc1cc(NC(=S)Nc2cccnc2)cc(OC)c1OC` registered a z-score of -0.192.

Regarding `CCN(C(=O)CSc1nc2ccccc2n1CCc1ccccc1)C1CCS(=O)(=O)C1` (centres undefined), the z-score is active: 3.88.

In turn, `Cc1cccc(-c2n[nH]c(=S)n2-c2ccccc2)c1[N+](=O)[O-]` had a z-score of -0.306.

As to `CCC(=O)Nc1ccccc1C(=O)OCc1ccc(C(=O)c2ccccc2)cc1`, the z-score is -0.327.

`O=C(c1sc2cccc(F)c2c1Cl)N1CCN(c2ncccn2)CC1` returned a z-score of -0.465.

The molecule `O=S1(=O)C[C@@H](N2CCOCC2)[C@H](N2CCOCC2)C1` showed a z-score of -0.267.

Molecule `COc1ccc(C2=NOC(C(=O)N3CCOCC3)C2)cc1OC` (centres undefined) displayed a z-score of -0.0899.

For `COc1ccc(C2CC(=O)N3CN(c4ccc(C)c(Cl)c4)CSC3=C2C#N)cc1OC` (centres undefined), the z-score was -0.42.

Take `CC1=NN(c2ccccc2)C(=O)C1C(=O)c1ccc(Cl)cc1` (centres undefined): the z-score stood at 2.14.

In the case of `Cn1c(N)c(C(=O)COC(=O)C2(c3ccccc3F)CCCC2)c(=O)n(C)c1=O`, the z-score is -0.309.

As to `CCC(=O)Nc1cc(C)c(NC(=O)c2ccccc2OC)cn1`, the z-score is -0.239.

For the molecule `COC(=O)c1ccc(OC(=O)CCN2c3ccccc3Sc3ccccc32)cc1`, the z-score stood at 0.123.

For `CCCc1c(C)c(C#N)c2nc3ccccc3n2c1NCCCN1CCOCC1`, the z-score is -0.297.

`CC(C)Cc1nnc(NC(=O)CCC(=O)N2CCN(c3ccccn3)CC2)s1` returned a z-score of -0.12.

The molecule `Cc1c(Cc2ccccc2)c(=O)oc2cc(OCc3nn[nH]n3)ccc12` registered a z-score of -0.244.

As to `COc1ccccc1-c1noc(-c2cccnc2)n1`, the z-score is 0.0558.

On to `Cc1csc(NC(=O)CNS(=O)(=O)c2cccs2)n1`, for which the z-score was -1.44.

`CC(=O)C1(C)N(O)C(C)(C)C(c2ccco2)=[N+]1[O-]` (centres undefined) returned a z-score of -0.047.

Regarding `CCOc1ccc(-n2nc3c(SCCN4CCCC4)nnc(C)c3c2C)cc1`, the z-score is -0.146.

`COc1ccc(CCNC(=O)COC(=O)/C=C/c2ccc(OC)c(OC)c2)cc1`: the z-score is -0.0542.

Consider `O=C(c1ccco1)N1CCN(C(c2ccccc2F)c2nnnn2Cc2cccs2)CC1` (centres undefined), for which the z-score came out at 0.0453.

As for `CC(=O)N=C1SC2CS(=O)(=O)CC2N1c1c(Cl)cccc1Cl` (centres undefined), the z-score turned out to be 0.67.

As for `O=C(CSc1nnc(-c2ccncc2)n1CC1CCCO1)Nc1cccc(O)c1` (centres undefined), the z-score was -0.162.

Molecule `Cc1c(Cl)cccc1NC(=S)NCCN1CCOCC1` displayed a z-score of -0.183.

With `COc1cccc(-c2cc(C(F)(F)F)nc(N3CCC(C)CC3)n2)c1`, the z-score was -0.433.

`S=c1nc(-c2ccccc2)oc2c1CCCC2` showed a z-score of -0.0866.

Turning to `COc1ccc(NS(=O)(=O)c2cccc(N3CC(O)=C(c4ccccc4)C3=N)c2)cc1`, the z-score is -0.322.

Molecule `COc1nc(N)c(S(=O)(=O)c2ccc(C)cc2)cc1C#N` registered a z-score of -0.338.

Molecule `Cc1nc(NC(=O)C2CC2)sc1C` had a z-score of -0.419.

Molecule `CCC(C)(C)NC(=O)C(c1cccnc1)N(CCOC)C(=O)Cn1nnc2ccccc21` (centres undefined) displayed a z-score of 0.248.

`COc1ccc(C2NC(=O)c3ccccc3N2)cc1OC` (centres undefined): the z-score amounted to 0.548.

For the molecule `NS(=O)(=O)c1ccc(CCNC(=O)C2Cc3ccccc3CN2C(=O)c2ccco2)cc1` (centres undefined), the z-score amounted to 0.12.

As to `Cc1ccc(NC(=S)NC2CC3CCC(C2)N3Cc2ccco2)c(C)c1` (centres undefined), the z-score is 0.174.

For the molecule `Cc1nc2c(C(=O)NCc3ccccc3Cl)c[nH]n2c(=O)c1Cl`, the z-score was -0.412.

Take `CC(C)C(CCNC(=O)CN1C(=O)c2ccccc2C1=O)c1ccco1` (centres undefined): the z-score came to 1.46.

In turn, `O=C(O)COCCN1CCN(C(c2ccccc2)c2ccc(Cl)cc2)CC1` (centres undefined) came in with a z-score of 0.16.

For the molecule `Cc1cc(Nc2cc(C(=O)O)ccc2C)n2ncnc2n1`, the z-score came out at 0.0398.

`COC(=O)N1N=C(c2ccc(Br)cc2)CC1(O)C(F)(F)F` (centres undefined) showed a z-score of -0.372.

Regarding `Cc1nnc(SCC(=O)Nc2cccc(S(=O)(=O)N(C)c3ccccc3)c2)s1`, the z-score was -0.536.

`Cc1ccc(NC(=O)c2cc3nc(C)cc(C)n3n2)cc1` gave a z-score of -0.429.

In turn, `CCCCCCCC(=O)N/N=C(\C)c1cccnc1` showed a z-score of -1.01.

`Cc1cccnc1NC(=O)c1ccc2nc(N)sc2c1` registered a z-score of -0.303.

In the case of `CCOc1ccccc1C(=O)Nc1ccccc1-c1ccccc1`, the z-score is 0.0945.

In the case of `O=C1CC(C2CCCO2)C(=O)N1c1ccccc1` (centres undefined), the z-score was found to be 0.253.

On to `CSCCC(NC(=O)c1ccco1)C(=O)O` (centres undefined), for which the z-score is 0.528.

`O=c1[nH]c(-c2ccc(Cl)cc2)nc2c1cnn2-c1ccccc1` gave a z-score of -0.29.

`COc1ccc(CONS(=O)(=O)c2ccc(NC(C)=O)cc2)cc1Cl` yielded a z-score of -0.00509.

`N#CC(C#N)=CC1=C2OC(c3ccccc3)=CC(c3ccccc3)=C2CCC1` came in with a z-score of -0.236.

Take `CCc1ccccc1NC(=O)COC(=O)C1CC(=O)N(c2ccc(F)cc2)C1` (centres undefined): the z-score is -0.678.

Regarding `COc1ccc(CC(=O)Nc2nnc(C)s2)cc1`, the z-score is -0.0206.

For the molecule `CC(C)c1nnc(NC(=O)CSc2ccccc2)s1`, the z-score amounted to 0.0199.

In the case of `CCc1cc(-c2n[nH]c(=S)n2N)n(C)n1`, the z-score was 0.018.

`COc1cc(/C=C(/NC(=O)c2ccccc2)C(=O)Nc2ccccc2)c([N+](=O)[O-])cc1OC` yielded a z-score of -0.0524.

As for `Cc1ccc(-n2c(=O)c3c4c(sc3n3c(C)nnc23)COC(C(C)C)C4)cc1` (centres undefined), the z-score was -2.03.

`COc1ccc(OC)c(NC(=O)CSc2nc3ccccc3c(=O)n2CCNC(C)=O)c1` returned a z-score of 0.234.

For the molecule `COc1ccc(-n2nnc3c(=O)n(C/C=C/c4ccccc4)cnc32)cc1`, the z-score was found to be 0.232.

Molecule `CCSc1nc2ccccc2n1S(=O)(=O)c1ccccc1` returned a z-score of 0.00952.

Turning to `O=C(Cc1ccc(Cl)cc1)Nc1ccc(N2CCCC2)cc1`, the z-score worked out at 0.209.

Take `Cc1ccccc1OCCC(=O)NCCc1ccc(S(N)(=O)=O)cc1`: the z-score was -0.077.

Regarding `Cn1c(=O)c2cc(S(=O)(=O)NCCC(=O)Nc3ccc(Cl)cc3)ccc2n(C)c1=O`, the z-score stood at 0.726.

In the case of `CNC(=O)CCc1[nH]c2ccccc2c1Sc1ccccc1`, the z-score was -0.158.

In turn, `COc1ccc(C(=O)NC2CCSC2=O)cc1` (centres undefined) gave a z-score of -0.412.

`Cc1ccc(S(=O)(=O)N2CCN(C(C(=O)Nc3ccc(F)cc3)c3ccccc3)CC2)cc1` (centres undefined) showed a z-score of -2.21.

`CC(=O)c1cnc2c(-c3ccccc3)cnn2c1C` showed a z-score of 0.732.

`CCc1nc(SCC(=O)N2CCCc3ccccc32)c2oc3ccccc3c2n1` gave a z-score of 0.329.

For `O=C(NCC(=O)N1CCCCC1)c1ccc(Cl)cc1Cl`, the z-score is -0.0121.

`COc1ccccc1NC(=O)CN(c1ccc([N+](=O)[O-])cc1)S(=O)(=O)c1ccccc1` gave a z-score of -0.194.

Consider `CCn1c(=O)cc(OCC(=O)NC2CCCCC2)c2ccccc21`, for which the z-score was -0.111.

Turning to `CCOC(=O)c1nn(-c2ccccc2C)c2nc(CC(C)C)c(C#N)c(=O)n12`, the z-score was 1.04.

On to `O=C(CSc1nccc(=O)[nH]1)Nc1ccc(S(=O)(=O)N2CCOCC2)cc1`, for which the z-score came out at 0.000588.

`c1ccc(CNC2=NCCCC2)cc1` had a z-score of -0.319.
